Assay results as given in PubChem BioAssay AID624296 (National Center for Advancing Translational Sciences (NCATS), 2012).
About 9,900 (2.8%) of roughly 350,000 compounds were called active. The inconclusive results got no clear call from the source; some entries with a clear call stand among them for comparison. The call rests on the fitted dose curve; in most records, active means well fitted activation curve with a large enough effect; inconclusive means small, poorly fitted or top-dose-only effect; inactive means no such curve, though single readings can be large or run the other way. No potency is given beside an inconclusive call; the fits are too rough.

Test: A quantitative high throughput screen for small molecules that induce DNA re-replication in MCF 10a normal breast cells. Further: nearly all actives have a fitted effect of over 50% in size. On activity, positive = re-replication: % of control where 0% means no effect.
Settings: MCF 10A DNA re-replication, Hoechst nuclear intensity, 48 h; activity, positive = re-replication: at 46.1 µM (top of the series)
Potency means the concentration at half of the fitted maximal effect; tags describe the fitted curve by direction and shape.

Question: Which Potency does the source give for `CC(=O)Nc1ccc(NC(=O)Cn2cnc3c(cnn3C(C)(C)C)c2=O)cc1` here?
Answer: inconclusive [activator, single point]

Question: With `CCN(CCO)c1ccc(-n2c(N)c(C(=O)OC)c3nc4ccccc4nc32)cc1` as the compound, how does the Potency read?
Answer: inconclusive [activator, single point]

Question: With `Nc1nc2c(c3c1c(=O)oc1ccccc13)CCCCC2` as the compound, how does the Potency read?
Answer: inconclusive [activator, single point]

Question: For `CN(C)CCNS(=O)(=O)c1ccc(N2CCc3ccccc32)c([N+](=O)[O-])c1`, which Potency is on record?
Answer: inconclusive [activator, single point]

Question: With `CCn1c(CSc2nnc(C)n2-c2ccccc2)nc2cc(S(=O)(=O)N(C)C)ccc21` as the compound, how does the Potency read?
Answer: inactive

Question: Which Potency does the source give for `CCCCNS(=O)(=O)c1ccc(NC(=O)C(Sc2ccccc2)c2ccccc2)cc1` (configuration not stated) here?
Answer: inconclusive [activator, single point]

Question: With `COc1cc(NC(=S)N2CCCCC2C)c(OC)cc1Cl` (configuration not stated) as the compound, how does the Potency read?
Answer: inconclusive [activator, partial curve, poor fit]

Question: With `COCCn1c(SCCOc2ccccc2)nc2ccccc2c1=O` as the compound, how does the Potency read?
Answer: inconclusive [activator, partial curve, poor fit]

Question: For `CN(C)CCC(=O)c1ccc2c(c1)OCO2`, which Potency is on record?
Answer: active: 7.31 µM

Question: For `Cc1c(Cl)sn(-c2ccc(Cl)cc2)c1=O`, which Potency is on record?
Answer: active: 3.26 µM

Question: With `S=C(NCC1CCCCC1)Nc1cccnc1` as the compound, how does the Potency read?
Answer: inactive

Question: For `CCN(Cc1ccccc1)C(=O)CCCOc1ccccc1`, which Potency is on record?
Answer: inconclusive [activator, partial curve, poor fit]

Question: For `CN(C)C(CNC(=O)c1ccc(Br)cc1)c1ccco1` (configuration not stated), which Potency is on record?
Answer: inconclusive [activator, single point]

Question: Which Potency does the source give for `Cc1ccc2[nH]cc(C(=O)CCl)c2c1` here?
Answer: inconclusive [activator, single point]

Question: Which Potency does the source give for `CN(C)C(C(=O)Nc1cc(Cl)cc(Cl)c1)c1ccccc1` (configuration not stated) here?
Answer: inconclusive [activator, single point]

Question: Which Potency does the source give for `CC(C)(C)c1csc(NC(=O)CSc2nc3ccccc3c(=O)[nH]2)n1` here?
Answer: inconclusive [activator, single point]

Question: With `CCC(=O)Nc1ccc(C(=O)CSc2nc3ccc(C)cc3[nH]2)cc1` as the compound, how does the Potency read?
Answer: inactive

Question: Which Potency does the source give for `CCOC(=O)N1CCN(C(=O)CSc2nnc(-c3cc(OC)ccc3OC)o2)CC1` here?
Answer: inconclusive [activator, single point]

Question: For `CCOC(=O)c1sc(Nc2ccccc2)nc1C`, which Potency is on record?
Answer: inactive

Question: Which Potency does the source give for `COC(=O)c1sccc1NC(=O)CN(C)NS(=O)(=O)c1ccc(F)cc1` here?
Answer: inconclusive [activator, single point]

Question: With `O=c1c2ccccc2nc(/C=C/c2ccc(Cl)cc2)n1CCO` as the compound, how does the Potency read?
Answer: inconclusive [activator, single point]

Question: With `Cc1nn(Cc2noc(C(=O)NCCc3ccccn3)n2)c(C)c1Br` as the compound, how does the activity, positive = re-replication read?
Answer: inconclusive: -52.2% [activator]

Question: With `COc1cc(-c2nc3sc(C)c(C)c3c(=O)o2)cc(OC)c1OC` as the compound, how does the Potency read?
Answer: inconclusive [activator, single point]

Question: For `O=[N+]([O-])c1cccc(-c2ccc3nnc(SCc4cccnc4)n3n2)c1`, which Potency is on record?
Answer: inactive

Question: Which Potency does the source give for `CCOc1ccc(OCCC(=O)N(CCC2=CCCCC2)c2c(N)n(Cc3ccccc3)c(=O)[nH]c2=O)cc1` here?
Answer: inactive

Question: With `Cc1ccc(CONC(=O)c2cccc([N+](=O)[O-])c2)cc1` as the compound, how does the Potency read?
Answer: inactive

Question: Which Potency does the source give for `CCCN1C(=O)c2ccccc2NC1c1ccc(OC)cc1OC` (configuration not stated) here?
Answer: inactive

Question: With `CC(C)(C)C1CCc2c(sc(NC(=O)C3CC=CCC3C(=O)O)c2C#N)C1` (configuration not stated) as the compound, how does the Potency read?
Answer: inconclusive [activator, single point]

Question: For `C(=N\Nc1nc2ccccc2[nH]1)/c1cccc2nccnc12`, which Potency is on record?
Answer: inconclusive [activator, full curve, poor fit]

Question: With `COc1ccc2oc(N)nc2c1` as the compound, how does the Potency read?
Answer: inactive

Question: With `CCN(C(=O)COC(=O)c1ccc2ccccc2c1)c1c(N)n(Cc2ccccc2)c(=O)[nH]c1=O` as the compound, how does the Potency read?
Answer: inconclusive [activator, single point]

Question: For `COc1ccc(Cl)c2sc(NC(=O)C3=COCCO3)nc12`, which Potency is on record?
Answer: inactive

Question: For `CCC(CO)Oc1cc(NCc2ccccc2)c2ncn(C3CCCC3)c2c1` (configuration not stated), which Potency is on record?
Answer: inconclusive [activator, partial curve, poor fit]

Question: Which Potency does the source give for `COc1ccccc1-c1cn[nH]c1-c1ccc(OCc2ccccc2)cc1O` here?
Answer: active: 23.1 µM

Question: Which Potency does the source give for `Cc1cc(/C([O-])=C(/C(=S)Nc2ccccc2)[n+]2ccccc2)c(C)n1-c1ccccc1` here?
Answer: inactive

Question: Which Potency does the source give for `CS(=O)(=O)N(Cc1ccc(C(=O)Nc2ccccc2Sc2ccccc2)cc1)c1ccccc1` here?
Answer: inconclusive [activator, partial curve]

Question: Which Potency does the source give for `OCCN1CCN(C(=S)c2ccc(Cl)cc2)CC1` here?
Answer: inactive

Question: With `Cc1cccc(Nc2nc(N)nc(CN3CCN(c4ccccc4F)CC3)n2)c1` as the compound, how does the Potency read?
Answer: inconclusive [activator, partial curve, poor fit]

Question: With `CC(=O)Nc1ccc(S(=O)(=O)N2CCC(N3CCCCCC3)CC2)cc1` as the compound, how does the Potency read?
Answer: inconclusive [activator, partial curve, poor fit]

Question: For `CC(C)(C)C(=O)Nc1ccccc1N1CCN(c2ccc(F)cc2)CC1`, which Potency is on record?
Answer: active: 20.6 µM

Question: Which Potency does the source give for `O=C(CSc1ccccc1F)NCC1(N2CCCCC2)CCCCC1` here?
Answer: inactive

Question: With `CC(=O)Nc1ccc(NC(=O)CCc2nc3sc4c(c3c(=O)[nH]2)CCCC4)cc1` as the compound, how does the Potency read?
Answer: inactive

Question: Which Potency does the source give for `CC(C)OCCCNC(=O)C1CCC(CNS(=O)(=O)c2ccc(Cl)cc2)CC1` (configuration not stated) here?
Answer: inactive

Question: For `CC1CCC(C(C)C)C(OC(=O)C[n+]2cc(-c3ccc(Cl)cc3)n3c2CCC3)C1` (configuration not stated), which Potency is on record?
Answer: inconclusive [activator, single point]

Question: With `O=C(CNC(=O)c1ccc(Br)o1)Nc1cccc(-c2cnc3ccccc3n2)c1` as the compound, how does the Potency read?
Answer: inconclusive [activator, partial curve, poor fit]

Question: With `CC1CCCN(C(=O)c2cc(-c3ccco3)nc3ccccc23)C1` (configuration not stated) as the compound, how does the Potency read?
Answer: inconclusive [activator, single point]

Question: For `CCOc1cccc(CNc2ccc(O)cc2)c1OCc1ccccc1Cl`, which Potency is on record?
Answer: inconclusive [activator, single point]
